Tested on: MCF7 cells (breast tumor cells) WT
Test: cells
Details: Homo sapiens, read-out: proliferation MCF7 (WT) IC50 (nM)

In order of falling IC50:
1. CN1CC=C(C2=C(c3ccc(O[C@H]4CCN(CCCF)C4)cc3)c3ccc(O)cc3CCC2)CC1 [Example 25, 5-[4-[(3S)-1-(3-fluoropropyl)pyrrolidin-3-yl]oxyphenyl]-6-(1-methyl-3,6-dihydro-2H-pyridin-4-yl)-8,9-dihydro-7H-benzo[7]annulen-2-ol]  48 nM
2. Oc1ccc2c(c1)CCCC(C1=CCNCC1)=C2c1ccc(O[C@H]2CCN(CCCF)C2)cc1 [Example 26, 5-[4-[(3S)-1-(3-fluoropropyl)pyrrolidin-3-yl]oxyphenyl]-6-(1,2,3,6-tetrahydropyridin-4-yl)-8,9-dihydro-7H-benzo[7]annulen-2-ol]  25 nM
3. Oc1ccc2c(c1)CCCC(c1ccc3c(c1)CCN3)=C2c1ccc(O[C@H]2CCN(CCCF)C2)cc1 [Example 21, 5-[4-[(3S)-1-(3-fluoropropyl)pyrrolidin-3-yl]oxyphenyl]-6-indolin-5-yl-8,9-dihydro-7H-benzo[7]annulen-2-ol]  23 nM
4. Oc1ccc2c(c1)CCCC(c1cnoc1)=C2c1ccc(O[C@H]2CCN(CCCF)C2)cc1 [Example 169, 5-[4-[(3S)-1-(3-fluoropropyl)pyrrolidin-3-yl]oxyphenyl]-6-isoxazol-4-yl-8,9-dihydro-7H-benzo[7]annulen-2-ol]  10 nM
5. Oc1ccc(C2=C(c3ccc(O[C@H]4CCN(CCCF)C4)cc3)c3ccc(O)cc3CCC2)c(F)c1 [Example 10, 6-(2-fluoro-4-hydroxy-phenyl)-5-[4-[(3S)-1-(3-fluoropropyl)pyrrolidin-3-yl]oxyphenyl]-8,9-dihydro-7H-benzo[7]annulen-2-ol]  7 nM
6. Cc1cccc(C2=C(c3ccc(O[C@H]4CCN(CCCF)C4)cc3)c3ccc(O)cc3CCC2)c1C [Example 31, 6-(2,3-dimethylphenyl)-5-[4-[(3S)-1-(3-fluoropropyl)pyrrolidin-3-yl]oxyphenyl]-8,9-dihydro-7H-benzo[7]annulen-2-ol]  4 nM
7. Oc1ccc2c(c1)CCCC(c1ccc(Cl)c(F)c1)=C2c1ccc(O[C@H]2CCN(CCCF)C2)cc1 [Example 16, 6-(4-chloro-3-fluoro-phenyl)-5-[4-[(3S)-1-(3-fluoropropyl)pyrrolidin-3-yl]oxyphenyl]-8,9-dihydro-7H-benzo[7]annulen-2-ol]  3 nM
8. CCOc1ncc(C2=C(c3ccc(O[C@H]4CCN(CCCF)C4)cc3)c3ccc(O)cc3CCC2)cc1F [Example 170, 6-(6-ethoxy-5-fluoro-3-pyridyl)-5-[4-[(3S)-1-(3-fluoropropyl)pyrrolidin-3-yl]oxyphenyl]-8,9-dihydro-7H-benzo[7]annulen-2-ol]  3 nM
9. Oc1ccc2c(c1F)CCCC(c1ccc(OC(F)(F)F)cc1Cl)=C2c1ccc(O[C@H]2CCN(CCCF)C2)cc1 [Example 180, 6-[2-chloro-4-(trifluoromethoxy)phenyl]-1-fluoro-5-[4-[(3S)-1-(3-fluoropropyl)pyrrolidin-3-yl]oxyphenyl]-8,9-dihydro-7H-benzo[7]annulen-2-ol]  2 nM
10. Cn1ccc2cc(C3=C(c4ccc(O[C@H]5CCN(CCCF)C5)cc4)c4ccc(O)cc4CCC3)ccc21 [Example 126, 5-[4-[(3S)-1-(3-fluoropropyl)pyrrolidin-3-yl]oxyphenyl]-6-(1-methylindol-5-yl)-8,9-dihydro-7H-benzo[7]annulen-2-ol]  1 nM
11. O=C(O)c1ccc2c(c1)CCCC(c1cccc(F)c1Cl)=C2c1ccc(O[C@H]2CCN(CCCF)C2)cc1 [Example 216, 6-(2-Chloro-3-fluoro-phenyl)-5-{4-[(S)-1-(3-fluoro-propyl)-pyrrolidin-3-yloxy]-phenyl}-8,9-dihydro-7H-benzocycloheptene-2-carboxylic acid]  1 nM
12. O=C(O)c1ccc2c(c1)CCCC(c1ccc3ocnc3c1)=C2c1ccc(O[C@H]2CCN(CCCF)C2)cc1 [Example 218, 6-Benzooxazol-5-yl-5-{4-[(S)-1-(3-fluoro-propyl)-pyrrolidin-3-yloxy]-phenyl}-8,9-dihydro-7H-benzocycloheptene-2-carboxylic acid]  1 nM
13. O=C(O)c1ccc2c(c1F)CCCC(c1ccc(Cl)cc1Cl)=C2c1ccc(O[C@H]2CCN(CCCF)C2)cc1 [Example 211, 6-(2,4-dichlorophenyl)-1-fluoro-5-[4-[(3S)-1-(3-fluoropropyl)pyrrolidin-3-yl]oxyphenyl]-8,9-dihydro-7H-benzo[7]annulene-2-carboxylic acid]  0.7 nM
14. Cc1cc(C2=C(c3ccc(O[C@H]4CCN(CCCF)C4)cc3)c3ccc(O)c(F)c3CCC2)ccc1Cl [Example 113, 6-(4-chloro-3-methyl-phenyl)-1-fluoro-5-[4-[(3S)-1-(3-fluoropropyl)pyrrolidin-3-yl]oxyphenyl]-8,9-dihydro-7H-benzo[7]annulen-2-ol]  0.6 nM
15. Oc1ccc2c(c1)CCCC(c1ccc3ncsc3c1)=C2c1ccc(O[C@H]2CCN(CCCF)C2)cc1 [Example 178, 6-(1,3-benzothiazol-6-yl)-5-[4-[(3S)-1-(3-fluoropropyl)pyrrolidin-3-yl]oxyphenyl]-8,9-dihydro-7H-benzo[7]annulen-2-ol]  0.5 nM
16. CC(C)c1ccccc1C1=C(c2ccc(O[C@H]3CCN(CCCF)C3)cc2)c2ccc(O)cc2CCC1 [Example 56, 5-[4-[(3S)-1-(3-fluoropropyl)pyrrolidin-3-yl]oxyphenyl]-6-(2-isopropylphenyl)-8,9-dihydro-7H-benzo[7]annulen-2-ol]  0.5 nM
17. CCOc1ncc(C2=C(c3ccc(O[C@H]4CCN(CCCF)C4)cc3)c3ccc(O)cc3CCC2)cc1Cl [Example 80, 6-(5-chloro-6-ethoxy-3-pyridyl)-5-[4-[(3S)-1-(3-fluoropropyl)pyrrolidin-3-yl]oxyphenyl]-8,9-dihydro-7H-benzo[7]annulen-2-ol]  0.5 nM
18. CC1(C)Cc2cc(C3=C(c4ccc(O[C@H]5CCN(CCCF)C5)cc4)c4ccc(O)cc4CCC3)ccc2O1 [Example 98, 6-(2,2-dimethyl-3H-benzofuran-5-yl)-5-[4-[(3S)-1-(3-fluoropropyl)pyrrolidin-3-yl]oxyphenyl]-8,9-dihydro-7H-benzo[7]annulen-2-ol]  0.4 nM
19. Oc1ccc2c(c1)CCCC(c1cncc(F)c1)=C2c1ccc(O[C@H]2CCN(CCCF)C2)cc1 [Example 90, 5-[4-[(3S)-1-(3-fluoropropyl)pyrrolidin-3-yl]oxyphenyl]-6-(5-fluoro-3-pyridyl)-8,9-dihydro-7H-benzo[7]annulen-2-ol]  0.4 nM
20. Oc1ccc2c(c1)CCCC(c1ccccc1Cl)=C2c1ccc(O[C@H]2CCN(CCCF)C2)cc1 [Example 58, 6-(2-chlorophenyl)-5-[4-[(3S)-1-(3-fluoropropyl)pyrrolidin-3-yl]oxyphenyl]-8,9-dihydro-7H-benzo[7]annulen-2-ol]  0.3 nM
21. Oc1ccc2c(c1F)CCCC(c1ccc(Cl)cc1F)=C2c1ccc(O[C@H]2CCN(CCCF)C2)cc1 [Example 121]  0.3 nM
22. CS(=O)(=O)c1ccc(C2=C(c3ccc(O[C@H]4CCN(CCCF)C4)cc3)c3ccc(O)cc3CCC2)c(F)c1 [Example 182, 6-(2-fluoro-4-methylsulfonyl-phenyl)-5-[4-[(3S)-1-(3-fluoropropyl)pyrrolidin-3-yl]oxyphenyl]-8,9-dihydro-7H-benzo[7]annulen-2-ol]  0.3 nM
23. Oc1ccc2c(c1)CCCC(c1ccc(OC(F)F)cc1)=C2c1ccc(O[C@H]2CCN(CCCF)C2)cc1 [Example 69, 6-[4-(difluoromethoxy)phenyl]-5-[4-[(3S)-1-(3-fluoropropyl)pyrrolidin-3-yl]oxyphenyl]-8,9-dihydro-7H-benzo[7]annulen-2-ol]  0.3 nM
24. O=C(O)c1ccc2c(c1)CCCC(c1ccccc1)=C2c1ccc(O[C@H]2CCN(CCCF)C2)cc1 [Example 217, 5-{4-[(S)-1-(3-Fluoro-propyl)-pyrrolidin-3-yloxy]-phenyl}-6-phenyl-8,9-dihydro-7H-benzocycloheptene-2-carboxylic acid]  0.3 nM
25. Oc1ccc2c(c1)CCCC(c1cccc(Cl)c1F)=C2c1ccc(O[C@H]2CCN(CCCF)C2)cc1 [Example 39, 6-(3-chloro-2-fluoro-phenyl)-5-[4-[(3S)-1-(3-fluoropropyl)pyrrolidin-3-yl]oxyphenyl]-8,9-dihydro-7H-benzo[7]annulen-2-ol]  0.2 nM
26. Oc1ccc2c(c1)CCCC(c1ccc(C(F)(F)F)nc1)=C2c1ccc(O[C@H]2CCN(CCCF)C2)cc1 [Example 68, 5-[4-[(3S)-1-(3-fluoropropyl)pyrrolidin-3-yl]oxyphenyl]-6-[6-(trifluoromethyl)-3-pyridyl]-8,9-dihydro-7H-benzo[7]annulen-2-ol]  0.2 nM
27. Oc1ccc2c(c1)CCCC(c1ccc3sncc3c1)=C2c1ccc(O[C@H]2CCN(CCCF)C2)cc1 [Example 197, 6-(1,2-benzothiazol-5-yl)-5-[4-[(3S)-1-(3-fluoropropyl)pyrrolidin-3-yl]oxyphenyl]-8,9-dihydro-7H-benzo[7]annulen-2-ol]  0.2 nM
28. CCOc1cc(C)c(C2=C(c3ccc(O[C@H]4CCN(CCCF)C4)cc3)c3ccc(O)cc3CCC2)cn1 [Example 139, 6-(6-ethoxy-4-methyl-3-pyridyl)-5-[4-[(3S)-1-(3-fluoropropyl)pyrrolidin-3-yl]oxyphenyl]-8,9-dihydro-7H-benzo[7]annulen-2-ol]  0.1 nM
29. Oc1ccc2c(c1)CCCC(c1ccc(OC(F)F)nc1)=C2c1ccc(O[C@H]2CCN(CCCF)C2)cc1 [Example 87, 6-[6-(difluoromethoxy)-3-pyridyl]-5-[4-[(3S)-1-(3-fluoropropyl)pyrrolidin-3-yl]oxyphenyl]-8,9-dihydro-7H-benzo[7]annulen-2-ol]  0.1 nM
30. Oc1ccc2c(c1)CCCC(c1ccc3c(c1)OC(F)(F)O3)=C2c1ccc(O[C@H]2CCN(CCCF)C2)cc1 [Example 134, 6-(2,2-difluoro-1,3-benzodioxol-5-yl)-5-[4-[(3S)-1-(3-fluoropropyl)pyrrolidin-3-yl]oxyphenyl]-8,9-dihydro-7H-benzo[7]annulen-2-ol]  0.1 nM
31. Oc1ccc2c(c1)CCCC(C1CCC(F)(F)CC1)=C2c1ccc(O[C@H]2CCN(CCCF)C2)cc1 [Example 208, 6-(4,4-difluorocyclohexyl)-5-[4-[(3S)-1-(3-fluoropropyl)pyrrolidin-3-yl]oxyphenyl]-8,9-dihydro-7H-benzo[7]annulen-2-ol]  0.1 nM
